Assay results from the RNAGym collection of RNA variant scans (doi:10.1093/nar/gkz1192).
Read counts are not given, so values of variants with three or more changes are uncertain.

B1: CPEB3 Ribozyme (parent)
chain: UAACAGGGGGCCACAGCAGAAGCGUUCACGUCGCAGCCCCUGUCAGAUUCUGGUGAAUCUGCGAAUUCUGCUGUAUAUCUC

Variants of: B1
Assay: self-cleavage, relative activity (ratio to wild type); higher = more cleavage; in vitro, sequencing
Method in brief: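 For each CPEB3 ribozyme variant, relative activity is its cleaved/total read fraction divided by the unmutated ribozyme's. Barcoded error-prone PCR libraries were transcribed by T7 RNA polymerase (5 hours, 37°C) and held in DNase I for 15 min before an EDTA stop, with cleavage occurring throughout. Template-switching reverse transcription and Illumina sequencing were used to read the RNAs. A 5-read minimum applied, and results are the mean of three batches.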

Row | Variant | self-cleavage
1 | UAACAGGGGGCCACAGCAGAAGCAUUCACGUCGCGGCCCCUGUCAGAUUCUGGUGAAUCCGCGAAUUCUGCUGUAUAUCUC [G24A A35G U60C] | 0.15
2 | UAACAGGGGGCCACAGCAGAAGCAUUCACGUCGCUGCCCCUGUCAGAUUCUGGUGAAUCUGCGGAUUCUGCUGUAUAUCUC [G24A A35U A64G] | 0.18
3 | UAACAGGGGGCCACAGCAGAAGCAUUCACGUCGCUGCCCCUGUCAGAUUCUGGUGAAUCUGCGAAUUCUGCUGUUUAUCUC [G24A A35U A75U] | 0.09
4 | UAACAGGGGGCCACAGCAGAAGCAUUCACGUCGCUGCCCCUGUCAGAUUCUGGUGAAUCAGCGAAUUCUGCUGUAUAUCUC [G24A A35U U60A] | 0.17
5 | UAACAGGGGGCCACAGCAGAAGCAUUCACGUCGCAGCCCCUGUCGGAUUCUGGUGAAUCUGCGGAUUCUGCUGUAUAUCUC [G24A A45G A64G] | 0.08
6 | UAACAGGGGGCCACAGCAGAAGCAUUCACGUCGCAGCCCCUGUCGGAUUCUGGUGAAUCUGCGAGUUCUGCUAUAUAUCUC [G24A A45G A65G G73A] | 0.23
7 | UAACAGGGGGCCACAGCAGAAGCAUUCACGUCGCAGCCCCUGUCGGACUCUGGUGAAUCCGCUGAUUCUGCUGUAUAUCUC [G24A A45G U48C U60C G63U A64G] | 0.1
8 | UAACAGGGGGCCACAGCAGAAGCAUUCACGUCGCAGCCCCUGUCGGAUUCUGGUGAAUCUGCGAAUUCUGCUGUAUAUCCC [G24A A45G U80C] | 0.35
9 | UAACAGGGGGCCACAGCAGAAGCAUUCACGUCGCAGCCCCUGUCUGAUUCUGGUGAAUCCGCGAUUUCUGCUGUAUAUCUC [G24A A45U U60C A65U] | 0.11
10 | UAACAGGGGGCCACAGCAGAAGCAUUCACGUCGCAGCCCCUGUCAGGUCCUGGUGGAUCUGCGAAUUCUGCAGUAUAUCUC [G24A A47G U49C A56G U72A] | 0.13
11 | UAACAGGGGGCCACAGCAGAAGCAUUCACGUCGCAGCCCCUGUCAGGUUCGGGUGAAUCUGCGAAUUCUGCUGUAUAUCUC [G24A A47G U51G] | 0.2
12 | UAACAGGGGGCCACAGCAGAAGCAUUCACGUCGCAGCCCCUGUCAGGUUCUGGUGAAUCUGCGAAUCCUGCUGUAUAUCUC [G24A A47G U67C] | 0.11
13 | UAACAGGGGGCCACAGCAGAAGCAUUCACGUCGCAGCCCCUGUCAGAUUCUGGUGAGUCCGCGAAUCCUGCUGUAUAUCUC [G24A A57G U60C U67C] | 0.06
14 | UAACAGGGGGCCACAGCAGAAGCAUUCACGUCGCAGCCCCUGUCAGAUUCUGGUGAGUCUGCGAAUUCUGCUGUAAAUCUC [G24A A57G U76A] | 0.12
15 | UAACAGGGGGCCACAGCAGAAGCAUUCACGUCGCAGCCCCUGUCAGAUUCUGGUGAAUCUGCGGAUCCUGCUGCAUAUCUC [G24A A64G U67C U74C] | 0.16
16 | UAACAGGGGGCCACAGCAGAAGCAUUCAGGUCGCAGCCCCUGUCAGAUUCUGGUGAAUCUGCGAAUUCUGCUGUGUAUCUC [G24A C29G A75G] | 0.18
17 | UAACAGGGGGCCACAGCAGAAGCAUUCAUGUCGCAGCCCCUGUAAGGUUCUGGUGAAUCUGCGACUCCUGCUGUAUAUCUC [G24A C29U C44A A47G A65C U67C] | 0.05

Row | Variant | self-cleavage
18 | UAACAGGGGGCCACAGCAGAAGCAUUCAUGUCGCAGCCCCUGCCAGAUUCUGGUGGAUCUGCGGAUUCUGCUGUAUGUCUC [G24A C29U U43C A56G A64G A77G] | 0.1
19 | UAACAGGGGGCCACAGCAGAAGCAUUCAUGUCGCAGCCCCUGCCAGAUUCUGGUGAAUCUGCGAUUUCUGCUGUAUAUCUC [G24A C29U U43C A65U] | 0.09
20 | UAACAGGGGGCCACAGCAGAAGCAUUCACGUAGCCGCCCCUGUCAGAUUCCGGUGAAUCUGCGAAUUCUGCUGUAUAUCUC [G24A C32A A35C U51C] | 0.18
21 | UAACAGGGGGCCACAGCAGAAGCAUUCACGUUGCAGCCCCUGUCAGAUUCUGGUGGAUCUGCGAAUUCUGCUGUAUAUCUC [G24A C32U A56G] | 0.42
22 | UAACAGGGGGCCACAGCAGAAGCAUUCACGUCGCAGACCCUGUCAGAUUCUGGAGAAUCUGCGAAUUCUGCUGUAUAUCUC [G24A C37A U54A] | 0.08
23 | UAACAGGGGGCCACAGCAGAAGCAUUCACGUCGCAGUCCCUGUCAGAUUCUGGUGGAUCUGCGAAUUCUGCUGUAUAUCUC [G24A C37U A56G] | 0.08
24 | UAACAGGGGGCCACAGCAGAAGCAUUCACGUCGCAGCUCCUGUCAGUUUCUGGUGAAUCUGCGAAUUCUGCUGUAUAUCUC [G24A C38U A47U] | 0.1
25 | UAACAGGGGGCCACAGCAGAAGCAUUCACGUCGCAGCCCAUGUCUGACUCCGGUGAACCUGCGAAUUCUGCUGUGUAUCUC [G24A C40A A45U U48C U51C U58C A75G] | 0.07
26 | UAACAGGGGGCCACAGCAGAAGCAUUCACGUCGCAGCCCAUGUCAGAUUCUGGUGAAUCUGCGAAUUCUGCUGUAGAUCUC [G24A C40A U76G] | 0.21
27 | UAACAGGGGGCCACAGCAGAAGCAUUCACGUCGCAGCCCUCGUCAGAUUCUGGUGAAUCUGCGAAUCCUGCUGUAUAUCUC [G24A C40U U41C U67C] | 0.11
28 | UAACAGGGGGCCACAGCAGAAGCAUUCACGUCGCAGCCCUUGCCAGAUUCUGGUGAAUCCGCGGAUUCUGCCGUAUAUCUC [G24A C40U U43C U60C A64G U72C] | 0.04
29 | UAACAGGGGGCCACAGCAGAAGCAUUCACGUCGCAGCCCCUGUCAGAUUCUGGUGAAUAUGCGGAUUCAGCCGUAUAUCUC [G24A C59A A64G U69A U72C] | 0.09
30 | UAACAGGGGGCCACAGCAGAAGCAUUCACAUCGCAGCCCCAGUCAGGUCCUGGUGAAUCUGCGAAUUCUGCUGUAUAUCUC [G24A G30A U41A A47G U49C] | 0.1
31 | UAACAGGGGGCCACAGCAGAAGCAUUCACAUCGCAGCCCCUGUCAGAUUCUGGUGAAUCUGCGAAUUCUGCUGUAUAUCCC [G24A G30A U80C] | 0.22
32 | UAACAGGGGGCCACAGCAGAAGCAUUCACUUCGCAGCCCCUGUCAGAUUCUGGUGAACCUGCGAAUUCUGCUGUAUUUCUC [G24A G30U U58C A77U] | 0.07
33 | UAACAGGGGGCCACAGCAGAAGCAUUCACGUCGCAGCCCCUGUCAGAUUCUUGUGAAUCCGCGAAUUCUGCUGUAUAUCUC [G24A G52U U60C] | 0.1
34 | UAACAGGGGGCCACAGCAGAAGCACUCUCGUCGCAGCCCCUGUCGGAUUCUGGUGAAUCCGCGAAUUCUGCUGUAUAUCUC [G24A U25C A28U A45G U60C] | 0.06
